Assay results: PubChem BioAssay (NCI)
Where “and” joins values, the source holds several entries; their conditions need not be identical. Identical values can stand only once.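 Dose response: 5 concentrations. Exposure: 48 h. Format: 96-well plates. Endpoint: linear interpolation; highest concentration if not reached. GI50 marks 50% less growth. At the TGI there is no net growth.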

Tested on: NCI-H322M lung
Experiment: NCI-60 cell line screen, 48 h

Compound | TGI [µM] | GI50
Cc1ccc2nc(-c3ccc(N4C(=O)C(Cl)C4c4ccc(Cl)cc4)cc3)sc2c1 (stereo not given) | > 100 | 
COc1ccc(C(=O)c2cc3c(N)c(C(=O)Nc4ccc(C)cc4)sc3nc2C)cc1 | 40 | 5.01 µM
Cc1cc(=O)oc2c(C)c(OCCCOc3ccc4c(C)cc(=O)oc4c3C)ccc12 | > 100 | 
CC/C(CC(=O)CCC(=O)Nc1ccccc1[N+](=O)[O-])=N/NC(=O)C[n+]1ccccc1 | > 100 | 
COC(C(=O)NCCCCNC(=O)C(OC)c1ccccc1)c1ccccc1 (stereo not given) | > 100 | 
CN/N=C(\C)C(CN(C)C)C(c1ccccc1)c1c(O)c2ccccc2oc1=O (stereo not given) | > 100 | 
COC(=O)[C@H](Cc1c[nH]c2ccccc12)NC(=O)c1ccc(CNC(=O)/C=C/c2cccc(Oc3ccccc3)c2)cc1 | > 100 | 
COC(C)(C)C1(O)CCC(C)CC1=O (stereo not given) | > 100 | 
CC(C)(C)CC(C)(C)NCc1cc(C(C)(C)C)cc(CNC(C)(C)CC(C)(C)C)c1O | 17 | 4.5 µM
COc1cc2c(cc1OC)C1(COc3cc(O)c(O)c(O)c3C1=O)C2 (stereo not given) | > 50 | 
COC(=O)c1cnc(Cl)cn1 | > 100 | 
CC(C)C1=CC23CCC4C(C)(C(=O)O)CCCC4(C)C2CC1C1C(=O)N(c2ccccc2)C(=O)C13 (stereo not given) | 92.4 | 
COc1cc(CNc2ccccc2C(=O)N2CCN(C(=O)c3cc(-c4cc(OC)c(OC)c(OC)c4)n4nc(-c5ccccc5)cc4n3)CC2)cc(OC)c1OC | > 100 | 5.65 µM
CN(Cc1cc(Cl)cc(Cl)c1)CC(C(=O)c1ccccc1)c1ccccc1 (stereo not given) | > 60.9 | 
Cc1ccc(S(=O)(=O)NNC(=O)c2cc(C)c(C)cc2N)cc1 | > 100 | 
CO[C@H](C(=O)[C@@H](O)[C@@H](C)O)[C@@H]1Cc2cc3cc(OC4CC(OC5CC(O)C(O)C(C)O5)C(O)C(C)O4)c(C)c(O)c3c(O)c2C(=O)[C@H]1OC1CC(OC2CC(OC3CC(C)(O)C(O)C(C)O3)C(O)C(C)O2)C(O)C(C)O1 (stereo not given in full) |  | 0.028 µg/mL and 0.018 µg/mL
COC(=O)Cc1ccc(Oc2cnc3cc(F)c(F)cc3n2)cc1 | > 100 | > 100 µM
CC(=O)On1c(-c2ccccc2-c2nc3ccccc3n2OC(C)=O)nc2ccccc21 | > 100 | 
CCN(CC)CCCNC(=O)c1c2c(n3ccccc13)C(=O)c1ncccc1C2=O | 3.55 | 0.522 µM
Cc1c2c(OCCN3CCCCC3)nn(C)c(=O)c2c(C)n1-c1ccccc1 | > 100 | 
O=C(Nc1ccc(-n2ccc3c(NC(=O)c4ccccc4)ncnc32)cc1)Nc1cccc(Cl)c1Cl | > 50 | 1.8 µM
CN(c1ccccc1Cl)S(=O)(=O)c1ccc([N+](=O)[O-])cc1 | > 100 | 
CC(=O)OC[C@@H](OC(C)=O)[C@H](OC(C)=O)[C@@H]1OC(C)(C)O[C@@H]1C1SCCCS1 | > 100 | 
S=C(c1c[nH]c2ccccc12)N1CCN(Cc2ccccc2)CC1 | 52.7 | 
O=C1CCCCCCCCCCC1CN1CCCCC1 (stereo not given) | > 100 | 

Compound | TGI [µM] | GI50
O=[N+]([O-])c1cc2c(cc1/C=N/n1c(CO)nc3ccccc31)OCO2 | > 100 | 
CN(C)CCCn1nc(N)c2nc3cc(Cl)ccc3nc21 | 98.1 | 
COc1ccc(C2C3COc4ccccc4C3=NN2c2ccccc2)cc1 (stereo not given) | > 100 | 
CN(C)C(=O)OC(Cn1cncn1)(Cn1cncn1)c1ccc(Cl)cc1Cl | > 100 | 
O=C(N/N=C1/C(=O)c2c3ccccc3cc3cccc1c23)c1ccccc1 | > 100 | 
Cc1ccc(/C=N/Nc2ccc3ccccc3n2)s1 | 34.5 | 
O=C(O)/C(Cc1ccc([N+](=O)[O-])cc1)=N\O | > 100 | 
O=[N+]([O-])CCc1cccc([N+](=O)[O-])c1 | > 100 | 
CCOC(=O)CC1C(COC(=O)NC)OC(n2cnc3c(NC(=O)Nc4ccccc4)ncnc32)C1O[Si](C)(C)C(C)(C)C (stereo not given) | > 100 | 31.7 µM
SCCSCCCSCCS | > 100 | 
Nc1ccn(C2OC(COC(=O)C34CC5CC(CC(C5)C3)C4)C(O)C2O)c(=O)n1 (stereo not given) | > 100 | 
Clc1ccc(C(SCc2ccccc2)SCc2ccccc2)cc1 | > 10 | 
CC(=O)OCC1OC(Oc2cc(C)c(O)cc2C/C=C(\C)CC/C=C(\C)CC(=O)CC(C)C)C(O)C(OC(C)=O)C1OC(C)=O (stereo not given) | 28.6 | 
CCOC(=N)/C(=C1\OC(N)=C(c2ccc(Cl)cc2)C1=O)c1ccc(Cl)cc1 | 43.3 | 
O=C1CC(c2cccc(Br)c2)n2cccc21 (stereo not given) | > 100 | 
CN1C(=O)N[C@H]2[C@@H]3NC(=O)c4ccc(Br)n4[C@@H]3C[C@]21O | 4.78 | 0.388 µM
OCC(O)c1nc2ccc3[nH]ncc3c2c2c1CCCC2 (stereo not given) | 14.2 | 1.33 µM
CC1=Nc2sc3c(c2C2=NCCN12)CCCC3 | > 100 | 
CCC(CNc1cc(OC)cc2cccnc12)NC1CCCCC1 (stereo not given) | > 100 | 21.7 µM
CC(C)(C)C(=O)OCC1CCC(n2cnc3c(=O)[nH]c(N)nc32)O1 (stereo not given) | > 100 | 
COc1c(O)cc2c(c1O)C(=O)/C(=C/c1ccc(O)cc1)CO2 | 70.1 | 
Cc1ccc(C)c(C2NC(=O)c3ccccc3N2)c1 (stereo not given) | > 100 | 
COc1ccc2cc(CN3CCC(C4CCNCC4)CC3)ccc2c1 | 5.37 | 
C=C1C(=O)O[C@@H]2C=C(C)C3=CC(=O)[C@](C)(C[C@H](OC(=O)/C(C)=C\C)[C@@H]12)O3 | 11.3 | 
CSc1n[n+]2c(s1)SCCC2 | > 100 | 

Compound | TGI [µM] | GI50
O=c1c2cccc3cccc(c4n1CCN=4)c32 | > 100 | 
O=Cc1ccc(-c2ccc(-c3nc4ccccc4o3)cc2)o1 | > 100 | > 100 µM
COc1ccc(N2C=Nn3c(nc4sc5c(c4c3=O)CCCC5)C2)cc1 | > 100 | 
O=c1c(=O)c2c(Br)sc(Br)c2c1=O | > 100 | 
N#Cc1c(-c2ccccc2)[nH]c(=O)n(C2OC(CO)C(O)C(O)C2O)c1=O (stereo not given) | > 100 | 
Cc1cc(N2CCSCC2)nc(NC2CCCC(Nc3ccnc4cc(Cl)ccc34)C2)n1 (stereo not given) | 4.84 | 1.96 µM
C=C1CCC2C(C)(COC(=O)CC)C(OC(=O)CC)CCC2(C)C1C/C=C1/C(=O)OCC1OC(=O)CC (stereo not given) | 19.2 | 6.65 µM
c1csc(C[N+]23CN4CN(CN(C4)C2)C3)c1 | > 100 | 
O=C(O)Cc1ccc2[nH]c(O)c(C3=Nc4ccccc4C3=O)c2c1 | > 100 | 
COc1ccc2nc3cc([N+](=O)[O-])ccc3c(NCCCN(C)C)c2c1 | 10.3 | 0.178 µM
CN(C)c1nc(=Nc2cccc(Cl)c2)ss1 | > 100 | 
CCN(CC)CCCC(C)N=C(C1=C(C(=NC(C)CCCN(CC)CC)c2cccc(OC)c2)C(=O)NC1=O)c1cccc(OC)c1 (stereo not given) | 10.1 | 2.24 µM
CNC(=O)Cc1nc(-c2cccc(NS(=O)(=O)c3c(F)cccc3F)c2F)c(-c2ccnc(Nc3ccccc3)n2)s1 | > 50 | 12.9 µM
CCc1cc(CCC(=O)Nc2c(C)cccc2C)[nH]n1 | > 100 | 
CC(C)(C)[Si](C)(C)OC1[C@@H](O[Si](C)(C)C(C)(C)C)[C@@H](CNC(=O)NC(=O)CCl)O[C@H]1n1cnc2c(NC(=O)Nc3ccccc3)ncnc21 (stereo not given in full) | 47.1 | 17.4 µM
Cc1cc(C)c(NC(=S)NC(=O)c2ccccc2)cc1C | > 100 | 
CC(C)C(N)=O | > 5000 | 
COc1cccc(NC(=O)c2sc3nc4c(cc3c2N)C(=O)CCC4)c1 | > 100 | 3.27 µM
FC(F)(F)C1(Br)C(c2ccccc2)=C1c1ccccc1 | 99.2 | 
CCOC(=O)CNc1nc(=O)c2c(=O)oc(Cl)cc2o1 | 88 | 
O=CC12C3CCC1C2C(=O)C3 (stereo not given) | > 100 | 
COc1ccc(OC)c(-c2cc(-c3ccc(Cl)cc3)nn2-c2ccc(S(=O)(=O)NC(C)=O)cc2)c1 | 41.2 | 18.8 µM
COC(=O)c1cc(O)c2c(c1C(=O)OC)C[C@H]1[C@@H]3CC=C4C[C@@H](O)CC[C@]4(C)[C@H]3CC[C@]21C | 24.4 | 4.02 µM
CC(=O)OC1CC2C(C)(C)C(=O)C=C[C@]2(C)C2CCC3(C)C(=CC(=O)C3c3ccoc3)[C@]12C (stereo not given in full) | 28.6 | 
c1c[nH]c(C23C4C5C6C4C2C6C53)n1 (stereo not given) | > 100 | 

Compound | TGI [µM] | GI50
COC(=O)N1CC2C3C4CC(C(c5ccccc5)=C4c4ccccc4)C3C21 (stereo not given) | 31.3 | 
NC(=O)c1cccc(Nc2nccc(Nc3cccc4[nH]ncc34)n2)c1 | > 25 | 9.77 µM
Cc1cn2c(/C=N/N=C(N)N)c(-c3cccs3)nc2s1 | 15.7 | 3.97 µM
CCn1c(-c2cc3ccccc3cc2O)nn(C(=O)c2c(Cl)cccc2Cl)c1=S | > 50 | > 50 µM
N#C/C(=C1\SC(N=Nc2ccccc2)C(=O)N1c1ccccc1)c1nc2ccccc2[nH]1 (stereo not given) | > 100 | 
N#CC1=C(N)NC(N2CCOCC2)=NC12Nc1ccccc1N2 | > 100 | 74.1 µM
CC(C)C(/C=C/c1ccc(Cl)c(Cl)c1)=N\NC(=O)N/N=C(/C=C/c1ccc(Cl)c(Cl)c1)C(C)C | > 100 | 
CC(C)(C)C1CCC2c3c([nH]c4ccccc34)C3C(=O)N(c4ccccc4)C(=O)C3C2C1 (stereo not given) | > 100 | 
O=c1[nH]nc(Cc2ccccc2)n1CCO | > 100 | 
O=C(Nc1cccc(O)c1)C(=O)C(C(=O)c1ccc(Cl)c(Cl)c1)C1OC(=O)c2ccccc21 (stereo not given) | 41.5 | 
CC1=NN(C(=O)c2ccc([N+](=O)[O-])cc2)C(=O)C1N=Nc1ccccc1C(=O)O (stereo not given) | > 100 | 
CCCN(CCCC(NC(C)=O)C(=O)NCc1ccccc1)C(=O)NCCCl (stereo not given) | > 100 | 
Cc1noc(NC2=CC(=O)C(=O)c3ccccc32)c1C | > 100 | 
O=c1c(Cl)c(Cl)c(=O)c2sc3cc(Cl)ccc3[nH]c1=2 | > 100 | 
Nc1nc(N)c2cc(NCc3ccc(Cl)c(Cl)c3)ccc2n1 | 2.43 | 1.04 µM
O=C(OCc1ncc(-c2ccc(C(F)(F)F)cc2)c(NC2CCCCCC2)n1)c1c(F)c(F)c(F)c(F)c1F | 32 | 17.3 µM
O=C1/C(=C\c2ccccn2)c2ccccc2N1c1c(Cl)cccc1Cl | 8.07 | 2.72 µM
COc1cccc(C2c3cc4c(cc3OC(N3CCCC3)C2C)OCO4)c1O (stereo not given) | > 80 | 
COC(=O)C(Cc1nc2ccccc2[nH]c1=O)C(=O)C(=O)Nc1ccc([N+](=O)[O-])cc1[N+](=O)[O-] (stereo not given) | > 100 | 
Cc1cc(Cl)ccc1NC(=O)C(=O)C(C(=O)c1ccc2ccccc2c1)C1OC(=O)c2ccccc21 (stereo not given) | 34.6 | 
C=C(OC1C(C)=C2C(C1OC(=O)CCCCCCC)C(C)(OC(C)=O)CC(OC(=O)CCC)C1(O)C2OC(=O)C1(C)O)/C(C)=C/C (stereo not given) | 10.2 | < 0.0001 µM
C[N+](C)(C)CC(=O)N/N=C(\C(=O)NC1=C(Cl)C(=O)c2ccccc2C1=O)C(C#N)c1csc(-c2ccc([N+](=O)[O-])cc2)n1 (stereo not given) | > 100 | 
